A lower IC50 marks a more sensitive line; a limit (>, <) means that the fit lies beyond the doses tested. For AUC the same curve is integrated over the 256-fold range of doses and scaled to a fraction; it is 1 without any effect and falls as sensitivity rises. For some assays here: Where the top dose is marked as inferred, it was derived from the fitted curves, not read from the paper. For some assays here: Drugs with an entry number were screened twice under separate entries, and the two screens often disagree.
Key:
Assay in all cases: Viability of human cancer cell lines after 72 h of drug (GDSC screen)
Pazopanib = compound: Cc1ccc(Nc2nccc(N(C)c3ccc4c(C)n(C)nc4c3)n2)cc1S(N)(=O)=O [Pazopanib]; settings: top dose 8 µM
Description: (§1)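 Human cancer cell lines in 384-well plates, medium with 10% serum, drug for 72 h over a 256-fold dose range (nine 2-fold or five 4-fold steps up to the top dose). Adherent lines were fixed and stained with the nucleic acid dye Syto60, suspension lines read with resazurin; signal relative to control wells, capped at 0 and 100%. One two-parameter sigmoid per drug and line, fitted in a mixed model over all curves with the slope shared within a line.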

AR-42 = compound: CC(C)[C@H](C(=O)Nc1ccc(C(=O)NO)cc1)c1ccccc1 [AR-42]; settings: top dose 5.12 µM; top dose inferred
Description: as §1

GDC0941 = compound: CS(=O)(=O)N1CCN(Cc2cc3nc(-c4cccc5[nH]ncc45)nc(N4CCOCC4)c3s2)CC1 [GDC0941]
Description: as §1

[1] = top dose 4 µM, screen: GDSC drug entry 1527, top dose inferred

Cell Line	AUC (Pazopanib)	IC50 (Pazopanib) [nM]	AUC (AR-42)	IC50 (AR-42) [nM]	AUC (GDC0941; [1])	IC50 (GDC0941; [1]) [nM]	AUC (GDC0941; screen: GDSC drug entry 1058)	IC50 (GDC0941; screen: GDSC drug entry 1058) [nM]
U031 (kidney, adherent)	0.983	> 8000	0.839	3680	0.66	706		
H2818 (mesothelioma, adherent)	0.972	> 8000	0.757	1810	0.881	> 4000		
SNU-398 (liver, adherent)	0.789	3690	0.594	586	0.903	> 4000		
NCI-H2030 (lung adenocarcinoma, adherent)	0.965	> 8000	0.671	1030				
HSC-3 (head and neck, adherent)	0.988	> 8000	0.798	2050	0.52	281		
NUGC-3 (stomach, adherent)	0.88	> 8000	0.71	1360	0.821	2690		
COR-L105 (lung adenocarcinoma, adherent)	0.847	7980	0.518	361	0.81	2690		
CHP-134 (neuroblastoma, suspension)			0.422	185				
OAW-28 (ovary, adherent)	0.913	> 8000	0.445	218	0.722	1280		
HPAC (pancreas, adherent)	0.897	> 8000	0.658	1050	0.902	> 4000		
OVCAR-3 (ovary, adherent)	0.911	> 8000	0.987	> 5120	0.642	645		
H2591 (mesothelioma, adherent)	0.81	5870	0.81	3750	0.808	2880		
TGBC24TKB (biliary tract, adherent)	0.964	> 8000	0.556	450	0.687	800		
SNU-1040 (large intestine, adherent)			0.978	> 5120	0.893	> 4000		
A172 (glioma, adherent)	0.802	3780	0.628	713	0.924	> 4000		
H2803 (mesothelioma, adherent)	0.892	> 8000	0.561	482				
KYSE-180 (oesophagus, adherent)	0.978	> 8000	0.501	322	0.869	3400		
BFTC-909 (kidney, adherent)	0.929	> 8000	0.741	1530	0.725	1070		
SW156 (kidney, adherent)	0.981	> 8000	0.856	4860	0.922	> 4000		
NCI-H1793 (lung adenocarcinoma, adherent)	0.982	> 8000	0.838	> 5120				
PCI-38 (head and neck, adherent)	0.985	> 8000	0.645	809	0.878	> 4000		
A204 (rhabdomyosarcoma, adherent)	0.345	164	0.61	705	0.614	564		

Cell Line	AUC (Pazopanib)	IC50 (Pazopanib) [nM]	AUC (AR-42)	IC50 (AR-42) [nM]	AUC (GDC0941; [1])	IC50 (GDC0941; [1]) [nM]	AUC (GDC0941; screen: GDSC drug entry 1058)	IC50 (GDC0941; screen: GDSC drug entry 1058) [nM]
NCI-H2228 (lung adenocarcinoma, adherent)	0.976	> 8000	0.835	> 5120	0.662	894		
H2804 (mesothelioma, adherent)	0.941	> 8000	0.676	1050				
YMB-1-E (breast, adherent)			0.818	4360				
RT-112 (bladder, adherent)	0.625	1140	0.54	414	0.665	748		
BPH-1 (prostate, adherent)	0.84	6390	0.403	168	0.654	703		
NCI-H2170 (lung squamous cell carcinoma, adherent)	0.88	> 8000	0.79	2400	0.882	> 4000		
T-24 (bladder, adherent)	0.96	> 8000	0.726	1350	0.904	> 4000		
HTC-C3 (thyroid, adherent)	0.969	> 8000	0.453	234	0.724	1180		
KG-1 (acute myeloid leukaemia, suspension)	0.584	827	0.339	120	0.902	> 4000		
SN12C (kidney, adherent)	0.92	> 8000	0.654	907				
OSC-19 (head and neck, adherent)	0.984	> 8000	0.533	395	0.841	2940		
NCI-H1573 (lung adenocarcinoma, adherent)	0.985	> 8000	0.603	608				
SNU-475 (liver, adherent)	0.988	> 8000	0.638	731				
BICR31 (head and neck, adherent)	0.956	> 8000	0.758	1800				
SU-DHL-10 (B-cell lymphoma, suspension)			0.09	30	0.784	1220		
ChaGo-K-1 (non-small cell lung carcinoma, adherent, top dose 4 µM)							0.96	> 4000
HCC1419 (breast, adherent, top dose 4 µM)							0.786	2590
KELLY (neuroblastoma, adherent, top dose 4 µM)							0.715	947
NCI-H835 (lung carcinoid, suspension, top dose 4 µM)							0.875	3600
SK-MM-2 (myeloma, suspension, top dose 4 µM)							0.805	2120
NCI-H1395 (lung adenocarcinoma, adherent, top dose 4 µM)							0.921	> 4000

Source: the supplement of paper PMC4967469
